Results reported in publication PMC6919601, “Identification of Plasmodium dipeptidyl aminopeptidase allosteric inhibitors by high throughput screening” (PLoS ONE, 2019).
Where “and” joins values, the source holds several entries; their conditions need not be identical. Equal entries are not always repeated. Screen size: about 110,000 compounds; about 230 (0.21%) showed an effect of 50% or more. The list shows a part of the results.

These compounds were tested against DPAP1 (Plasmodium falciparum, UniProt Q8IIJ9) (assay: primary screen, percent inhibition; read by cleavage of a fluorogenic dipeptide substrate; higher = more effect of the substance).
DPAP1, sequence (Q8IIJ9 whole entry, looked up): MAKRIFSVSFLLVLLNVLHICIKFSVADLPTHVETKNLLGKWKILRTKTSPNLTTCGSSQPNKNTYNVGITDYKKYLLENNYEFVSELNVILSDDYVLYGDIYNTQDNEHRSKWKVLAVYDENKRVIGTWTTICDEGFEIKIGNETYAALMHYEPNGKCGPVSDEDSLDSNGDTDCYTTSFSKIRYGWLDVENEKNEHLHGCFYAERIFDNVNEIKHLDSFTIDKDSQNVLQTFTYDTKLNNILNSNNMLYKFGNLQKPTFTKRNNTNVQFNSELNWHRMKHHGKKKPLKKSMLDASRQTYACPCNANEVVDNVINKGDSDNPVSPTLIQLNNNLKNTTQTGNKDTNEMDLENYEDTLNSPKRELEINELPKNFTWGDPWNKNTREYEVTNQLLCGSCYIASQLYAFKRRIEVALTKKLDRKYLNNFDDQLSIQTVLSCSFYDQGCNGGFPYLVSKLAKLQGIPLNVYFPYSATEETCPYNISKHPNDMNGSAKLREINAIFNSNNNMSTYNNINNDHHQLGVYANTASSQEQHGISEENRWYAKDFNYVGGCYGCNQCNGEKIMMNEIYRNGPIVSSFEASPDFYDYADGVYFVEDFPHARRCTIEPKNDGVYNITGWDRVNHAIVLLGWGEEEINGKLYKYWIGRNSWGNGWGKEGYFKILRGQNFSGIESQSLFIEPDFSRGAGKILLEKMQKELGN
Parameters: species or system P. falciparum D10 trophozoite lysates; single well
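Note: 30 min substrate incubation versus DMSO and 10 µM JCP410 controls.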

Compound | % Inhibition @ 10 uM
CC(=O)c1cc2c(cc1NC(=O)C1CCC1)OCO2 | -3.19%
O=C(CN(C1CCCCC1)S(=O)(=O)c1ccc(F)cc1)Nc1ccc(F)cc1 | -1.36%
COc1ccc(OCC(O)CNC(C)C)cc1 (stereo not shown) | -4.24%
Cn1c(=O)n(C)c2cc(/C=C3/SC(=O)N(CC(=O)N4CCOCC4)C3=O)ccc21 | 2.33%
Cc1ccc2c(Cl)c(C(=O)Nc3ncc(C)s3)sc2c1 | 6.29%
Cc1ccc(C(=O)Nc2sc3c(c2C#N)CCC(C)C3)o1 (stereo not shown) | -3.63%
O=C1C2C3CCC(O3)C2C(=O)N1c1ccccc1O (stereo not shown) | -4.85%
Cc1ccccc1NC(=O)CN(c1ccccc1F)S(C)(=O)=O | 1.89%
COc1ccc(CN2CCN(Cc3cccc(Cl)c3)CC2)cc1OC | -14.2%
Cc1ccc(C(=O)c2cnc3cc4c(cc3c2N2CCCC2)OCO4)cc1C | -2.84%
Fc1ccccc1C1CC(c2ccc(Br)cc2)=NN1c1cccc(Br)c1 (stereo not shown) | -2.66%
COC(=O)c1ccccc1-c1ccc(/C=C2\C(=O)NC(=O)C(C#N)=C2C)o1 | 2.17%
CC(C)Oc1ccc(C(CC(=O)O)NC(=O)Cc2ccc(Cl)cc2)cc1 (stereo not shown) | -6.28%
O=C(Cn1nc(Cc2ccncc2)c2ccccc2c1=O)N1CCN(Cc2ccccc2)CC1 | 2.04%
COc1cccc(CNc2ccc(Br)c(C)c2)c1OC | 0.00519%
C=CCn1c(-c2ccc(C)cc2)cs/c1=N\c1cccc(O)c1 | 2.33%
CCn1ccnc1C(O)c1ccc(OC)c(OC)c1 (stereo not shown) | 1.39%
O=C(CCc1ccccc1)Nc1cccnc1 | 1.83%
COc1cc(OC)c(CNC23CC4CC(CC(C4)C2)C3)cc1Br | -2.58%
CCCOc1ccc(N2C(=O)CC(N3CCN(c4ncccn4)CC3)C2=O)cc1 (stereo not shown) | -9.13%
COC(=O)c1ccc(NC(=O)c2c(C(=O)O)cccc2[N+](=O)[O-])cc1 | -0.0369%
N=C1/C(=C\c2ccc(Br)o2)C(=O)N=C2SC(N3CCCCC3)=NN12 | -3.44%

Compound | % Inhibition @ 10 uM
NC(=O)CSc1nc2ccccc2[nH]1 | -1.86%
CC(=O)N1CCC(N(CCCN2CCC(C)CC2)C(=O)NC23CC4CC(CC(C4)C2)C3)CC1 | 6.08%
CCCOc1ccc(C(=O)N(Cc2ccc(C)cc2)Cc2ccco2)cc1 | 1.25%
CC1CCN(S(=O)(=O)N2CCC(C(=O)NC(C)c3ccccc3)CC2)CC1 (stereo not shown) | -1.34%
Cc1ccc(COc2ccc(/C=C3\SC(=O)N(CC(=O)N4CCOCC4)C3=O)cc2)cc1 | -8.88%
CCCOc1ccc(C(=O)Nc2ccc(-c3nc4ncccc4o3)cc2)cc1 | 2.13%
O=C(Nc1cccc([N+](=O)[O-])c1)c1cccc(S(=O)(=O)N2CCCCC2)c1 | 15.7%
Cc1ccc(-c2nc(CS(=O)CC(=O)Nc3cccnc3)c(C)o2)cc1 (stereo not shown) | 0.238%
CCC(N)C(=O)c1ccc(Br)cc1 (stereo not shown) | -8.01%
COc1ccc(-c2ccccc2)cc1NCC1CC=CCC1 (stereo not shown) | -4.14%
Cc1cccc(NC(=O)CC2SC(Nc3ccccc3C)=NC2=O)c1 (stereo not shown) | 3.17%
COc1ccc(CN(C(=O)c2cccc(OC)c2)C2CCS(=O)(=O)C2)cc1 (stereo not shown) | 4.88%
CCCn1c(CCC(=O)NCCc2cc(OC)ccc2OC)nc2cccnc21 | 0.66%
O=C(NCCCN1CCOCC1)c1cn(-c2ccccc2)nc1-c1ccccc1 | 0.716%
O=C(CN1Cc2ccccc2C1=O)NCc1ccccc1 | -4.1%
CCOc1cc2c(c([N+](=O)[O-])c1)NC(C(C)C)C1CC=CC21 (stereo not shown) | 1%
CCc1c(C)sc(NC(=O)c2ccc3c(c2)OCO3)c1C(N)=O | 8.71%
CC(C)CN(CC(C)C)C(=O)CC(=O)NC(=O)c1ccc(Cl)cc1 | -4.35%
C=CCn1c(Cc2csc(N)n2)nnc1SCC(=O)Nc1sc(C)c(C)c1C(=O)OCC | -3.37%
N#CC(NC(=O)[C@H](CS(=O)(=O)Cc1ccccc1)NC(=O)N1CCOCC1)c1cccs1 (stereo partly shown) | 0.079%
CC1=C(C(=O)Nc2ccccc2)C(c2ccc(F)cc2)NC(=O)N1 (stereo not shown) | 7.71%
O=C(Cn1nc(Cc2cccnc2)c2ccccc2c1=O)Nc1cccnc1Cl | -6.52%

Compound | % Inhibition @ 10 uM
CC(C)c1ccc(CN2CCc3c([nH]c4ccccc34)C2)cc1 | -5.65%
CCOC(=O)c1c(NC(=O)c2c([N+](=O)[O-])cnn2C)sc2c1CCCC2 | -0.999%
Oc1cc(CN2CCc3ccccc3C2)c2ccccc2n1 | 2.5%
CC(C)C(=O)N(Cc1ccc(Cl)cc1)C1CCS(=O)(=O)C1 (stereo not shown) | -1.42%
CN(C)c1ccc2nc3c(=O)[nH]c(=O)[nH]c3nc2c1 | 0.962% and 2.23%
OCC/N=C/c1[nH]c2ccccc2c1O | 0.0345%
COc1ccc(C2C(C#N)=C(N)OC3=C2C(=O)CCC3)cc1COc1ccc(F)c(Cl)c1 (stereo not shown) | -0.68%
Cc1ccc(N2C(=O)CC(NCCc3ccccc3F)C2=O)cc1 (stereo not shown) | -7.61%
Cc1ccsc1C1C2=C(O)CCCC2=Nc2ncnn21 (stereo not shown) | -5.14%
COc1ccc(OC)c(/C=C2\N=C(c3ccc(-c4ccccc4)cc3)OC2=O)c1 | -31.7%
CCCCCC(=O)N(CN1C(=O)CCC1=O)c1ccccc1 | -4.68%
COc1cc(/C=C2\SC(=O)N(Cc3c(F)cccc3Cl)C2=O)ccc1OC(C)C(=O)O (stereo not shown) | -1.81%
CCN(CC)CCCNC(=O)C1CCN(C(=O)c2cnn(-c3ccccc3)c2-n2cccc2)CC1 | -1.58%
COC(=O)c1ccc(C2NN=C(c3ccccc3)S2)cc1 (stereo not shown) | 3.32%
Cc1ccccc1C(=O)c1cccn1CC(=O)N1CCCCCC1 | 1.15%
Cc1ccc(-c2nc(C(=O)N3CCC4(CC3)OCCO4)c3n2CCCCC3)cc1 | -9.15%
C#CCSc1nsc(SCC#C)c1C#N | 4.95%
Cc1ccc(N(O)C(=O)Nc2ccccc2[N+](=O)[O-])cc1 | 1.66%
Cc1ccc(CCn2c(C)c(C)c3ccccc32)cn1 | 2.62%
COc1ccccc1C1=N/C(=C\c2ccc3c(c2)OCO3)C(=O)O1 | 1.61%
